# Measurements from patent US20250296984A1, “THERAPEUTIC AND DIAGNOSTIC AGENTS AND USES THEREOF” (priority 2022, published 2025).
# Biological target: Peptide-N-BSA (human cytomegalovirus)
# Experiment: ELISA, Peptide-N-BSA coated
row,absorbance,Binder
1,2.8,"US28-4-2F5B11 (antibody, mouse IgG1, kappa) heavy: EVQLQESGAELAKPGASVKMSCKASGYTFSSYWIHWIKQRPGQGLEWIGYINPNTAYTEFNQKFMDKATLTADKSSSTAYMQLTSLTSEDSAVYYCARLRSDRTGFAYWGQGTLVTVSAAKTTPPSVYPLAPGSAAQTNSMVTLGCLVKGYFPEPVTVTWNSGSLSSGVHTFPAVLQSDLYTLSSSVTVPSSTWPSETVTCNVAHPASSTKVDKKIVPRDCGCKPCICTVPEVSSVFIFPPKPKDVLTITLTPKVTCVVVDISKDDPEVQFSWFVDDVEVHTAQTQPREEQFNSTFRSVSELPIMHQDWLNGKEFKCRVNSAAFPAPIEKTISKTKGRPKAPQVYTIPPPKEQMAKDKVSLTCMITDFFPEDITVEWQWNGQPAENYKNTQPIMDTDGSYFIYSKLNVQKSNWEAGNTFTCSVLHEGLHNHHTEKSLSHSPGK light: QIVLTQSPSSLAVSVGEKVTMS[about 80 residues not printed][about 120 residues not printed]"
2,2.75,"US28-4-4H3C3 (antibody, mouse IgG1, kappa) heavy: QVQLQQSGAELAKPGASVKMSCKASGYTFTSYWMHWVKQRPGQGLEWIGYINPSTGYAEYNQKFKDKATLTADKSSSTAYMQLSSLTSEDSAVYYCARLRFGSSGFAYWGQGTLVTVSSAKTTPPSVYPLAPGSAAQTNSMVTLGCLVKGYFPEPVTVTWNSGSLSSGVHTFPAVLQSDLYTLSSSVTVPSSTWPSETVTCNVAHPASSTKVDKKIVPRDCGCKPCICTVPEVSSVFIFPPKPKDVLTITLTPKVTCVVVDISKDDPEVQFSWFVDDVEVHTAQTQPREEQFNSTFRSVSELPIMHQDWLNGKEFKCRVNSAAFPAPIEKTISKTKGRPKAPQVYTIPPPKEQMAKDKVSLTCMITDFFPEDITVEWQWNGQPAENYKNTQPIMDTDGSYFIYSKLNVQKSNWEAGNTFTCSVLHEGLHNHHTEKSLSHSPGK light: QIVLTQSPSSLAVSVGEKVTMS[about 80 residues not printed][about 120 residues not printed]"
